Laboratory results as given in the supplement of paper PMC8728848.
The other results are listed elsewhere or left out.

Legend:
Experiment in all cases: glycan array binding signal (z-score within array); higher = stronger binding
Conditions in all cases: glycan notation: IUPAC condensed, linker removed
[1] = molecular target: Gal(b1-4)GlcNAc(b1-3)Gal(b1-4)GlcNAc(b1-2)Man(a1-3)[Gal(b1-4)GlcNAc(b1-3)Gal(b1-4)GlcNAc(b1-2)Man(a1-6)]Man(b1-4)GlcNAc(b1-4)[Fuc(a1-6)]GlcNAc
How it was run: (§1)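 Arrays were curated from the Consortium for Functional Glycomics database, 3228 in total, and kept only where the protein sequence was available. Binding is expressed as a within-array Z-score. This score was averaged across arrays of the same protein sequence at different concentrations or buffers and across linkers, and negative values can be read as non-binding.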

[2] = molecular target: Gal(b1-4)GlcNAc(b1-3)Gal(b1-4)GlcNAc(b1-2)[Gal(b1-4)GlcNAc(b1-3)Gal(b1-4)GlcNAc(b1-6)]Man(a1-6)[Gal(b1-4)GlcNAc(b1-3)Gal(b1-4)GlcNAc(b1-2)Man(a1-3)]Man(b1-4)GlcNAc(b1-4)GlcNAc
How it was run: as §1

[3] = molecular target: Gal(b1-4)GlcNAc(b1-3)Gal(b1-4)GlcNAc(b1-2)[Gal(b1-4)GlcNAc(b1-3)Gal(b1-4)GlcNAc(b1-6)]Man(a1-6)[Gal(b1-4)GlcNAc(b1-3)Gal(b1-4)GlcNAc(b1-2)Man(a1-3)]Man(b1-4)GlcNAc(b1-4)[Fuc(a1-6)]GlcNAc
How it was run: as §1

[4] = molecular target: Gal(b1-4)GlcNAc(b1-3)Gal(b1-4)GlcNAc(b1-3)Gal(b1-4)GlcNAc
How it was run: as §1

[5] = molecular target: Gal(b1-4)GlcNAc(b1-3)Gal(b1-4)GlcNAc(b1-3)Gal(b1-4)GlcNAc(b1-2)Man(a1-3)[Gal(b1-4)GlcNAc(b1-3)Gal(b1-4)GlcNAc(b1-3)Gal(b1-4)GlcNAc(b1-2)Man(a1-6)]Man(b1-4)GlcNAc(b1-4)GlcNAc
How it was run: as §1

[6] = molecular target: Gal(b1-4)GlcNAc(b1-3)Gal(b1-4)GlcNAc(b1-3)Gal(b1-4)GlcNAc(b1-2)Man(a1-3)[Gal(b1-4)GlcNAc(b1-3)Gal(b1-4)GlcNAc(b1-3)Gal(b1-4)GlcNAc(b1-2)Man(a1-6)]Man(b1-4)GlcNAc(b1-4)[Fuc(a1-6)]GlcNAc
How it was run: as §1

[7] = molecular target: Gal(b1-4)GlcNAc(b1-3)Gal(b1-4)GlcNAc(b1-3)Gal(b1-4)GlcNAc(b1-2)[Gal(b1-4)GlcNAc(b1-3)Gal(b1-4)GlcNAc(b1-3)Gal(b1-4)GlcNAc(b1-6)]Man(a1-6)[Gal(b1-4)GlcNAc(b1-3)Gal(b1-4)GlcNAc(b1-3)Gal(b1-4)GlcNAc(b1-2)Man(a1-3)]Man(b1-4)GlcNAc(b1-4)[Fuc(a1-6)]GlcNAc
How it was run: as §1

[8] = molecular target: Gal(b1-4)GlcNAc(b1-3)Gal(b1-4)GlcNAc(b1-3)Gal(b1-4)GlcNAc(b1-3)Gal(b1-4)GlcNAc(b1-2)Man(a1-3)[Gal(b1-4)GlcNAc(b1-3)Gal(b1-4)GlcNAc(b1-3)Gal(b1-4)GlcNAc(b1-3)Gal(b1-4)GlcNAc(b1-2)Man(a1-6)]Man(b1-4)GlcNAc(b1-4)GlcNAc
How it was run: as §1

[9] = molecular target: Gal(b1-4)GlcNAc(b1-3)Gal(b1-4)GlcNAc(b1-3)Gal(b1-4)GlcNAc(b1-3)Gal(b1-4)GlcNAc(b1-2)Man(a1-3)[Gal(b1-4)GlcNAc(b1-3)Gal(b1-4)GlcNAc(b1-3)Gal(b1-4)GlcNAc(b1-3)Gal(b1-4)GlcNAc(b1-2)Man(a1-6)]Man(b1-4)GlcNAc(b1-4)[Fuc(a1-6)]GlcNAc
How it was run: as §1

[10] = molecular target: Gal(b1-4)GlcNAc(b1-3)Gal(b1-4)GlcNAc(b1-3)Gal(b1-4)GlcNAc(b1-3)Gal(b1-4)GlcNAc(b1-2)[Gal(b1-4)GlcNAc(b1-3)Gal(b1-4)GlcNAc(b1-3)Gal(b1-4)GlcNAc(b1-3)Gal(b1-4)GlcNAc(b1-6)]Man(a1-6)[Gal(b1-4)GlcNAc(b1-3)Gal(b1-4)GlcNAc(b1-3)Gal(b1-4)GlcNAc(b1-3)Gal(b1-4)GlcNAc(b1-2)Man(a1-3)]Man(b1-4)GlcNAc(b1-4)[Fuc(a1-6)]GlcNAc
How it was run: as §1

[11] = molecular target: Gal(b1-4)GlcNAc(b1-3)Gal(b1-4)GlcNAc(b1-3)Gal(b1-4)GlcNAc(b1-3)Gal(b1-4)GlcNAc(b1-3)Gal(b1-4)GlcNAc(b1-2)Man(a1-3)[Gal(b1-4)GlcNAc(b1-3)Gal(b1-4)GlcNAc(b1-3)Gal(b1-4)GlcNAc(b1-3)Gal(b1-4)GlcNAc(b1-3)Gal(b1-4)GlcNAc(b1-2)Man(a1-6)]Man(b1-4)GlcNAc(b1-4)GlcNAc
How it was run: as §1

[12] = molecular target: Gal(b1-4)GlcNAc(b1-3)Gal(b1-4)GlcNAc(b1-3)Gal(b1-4)GlcNAc(b1-3)Gal(b1-4)GlcNAc(b1-3)Gal(b1-4)GlcNAc(b1-2)Man(a1-3)[Gal(b1-4)GlcNAc(b1-3)Gal(b1-4)GlcNAc(b1-3)Gal(b1-4)GlcNAc(b1-3)Gal(b1-4)GlcNAc(b1-3)Gal(b1-4)GlcNAc(b1-2)Man(a1-6)]Man(b1-4)GlcNAc(b1-4)[Fuc(a1-6)]GlcNAc
How it was run: as §1

[13] = molecular target: Gal(b1-4)GlcNAc(b1-3)Gal(b1-4)GlcNAc(b1-3)Gal(b1-4)GlcNAc(b1-3)Gal(b1-4)GlcNAc(b1-3)Gal(b1-4)GlcNAc(b1-2)[Gal(b1-4)GlcNAc(b1-3)Gal(b1-4)GlcNAc(b1-3)Gal(b1-4)GlcNAc(b1-3)Gal(b1-4)GlcNAc(b1-3)Gal(b1-4)GlcNAc(b1-6)]Man(a1-6)[Gal(b1-4)GlcNAc(b1-3)Gal(b1-4)GlcNAc(b1-3)Gal(b1-4)GlcNAc(b1-3)Gal(b1-4)GlcNAc(b1-3)Gal(b1-4)GlcNAc(b1-2)Man(a1-3)]Man(b1-4)GlcNAc(b1-4)[Fuc(a1-6)]GlcNAc
How it was run: as §1

[14] = molecular target: Gal(b1-4)GlcNAc(b1-3)Gal(b1-4)GlcNAc(b1-3)Gal(b1-4)GlcNAc(b1-3)Gal(b1-4)GlcNAc(b1-3)Gal(b1-4)GlcNAc(b1-3)Gal(b1-4)GlcNAc(b1-2)Man(a1-3)[Gal(b1-4)GlcNAc(b1-3)Gal(b1-4)GlcNAc(b1-3)Gal(b1-4)GlcNAc(b1-3)Gal(b1-4)GlcNAc(b1-3)Gal(b1-4)GlcNAc(b1-3)Gal(b1-4)GlcNAc(b1-2)Man(a1-6)]Man(b1-4)GlcNAc(b1-4)GlcNAc
How it was run: as §1

[15] = molecular target: Gal(b1-4)GlcNAc(b1-3)Gal(b1-4)GlcNAc(b1-3)GalNAc
How it was run: as §1

[16] = molecular target: Gal(b1-4)GlcNAc(b1-3)Gal(b1-4)GlcNAc(b1-3)[Gal(b1-4)GlcNAc(b1-3)Gal(b1-4)GlcNAc(b1-6)]GalNAc
How it was run: as §1

[17] = molecular target: Gal(b1-4)GlcNAc(b1-3)Gal(b1-4)GlcNAc(b1-6)[Gal(b1-3)]GalNAc
How it was run: as §1

[18] = molecular target: Gal(b1-4)GlcNAc(b1-3)Gal(b1-4)[Fuc(a1-3)]GlcNAc(b1-3)Gal(b1-4)[Fuc(a1-3)]GlcNAc
How it was run: as §1

[19] = molecular target: Gal(b1-4)GlcNAc(b1-3)GalNAc
How it was run: as §1

[20] = molecular target: Gal(b1-4)GlcNAc(b1-3)[Fuc(a1-3)GlcNAc(b1-6)]Gal(b1-4)Glc
How it was run: as §1

[21] = molecular target: Gal(b1-4)GlcNAc(b1-3)[Gal(b1-4)GlcNAc(b1-6)]Gal(b1-4)GlcNAc
How it was run: as §1

[22] = molecular target: Gal(b1-4)GlcNAc(b1-3)[GlcNAc(b1-6)]Gal(b1-4)GlcNAc
How it was run: as §1

[23] = molecular target: Gal(b1-4)GlcNAc(b1-6)Gal(b1-4)GlcNAc
How it was run: as §1

[24] = molecular target: Gal(b1-4)GlcNAc(b1-6)GalNAc
How it was run: as §1

[25] = molecular target: Gal(b1-4)GlcNAc(b1-6)[Gal(b1-3)]GalNAc
How it was run: as §1

[26] = molecular target: Gal(b1-4)GlcNAc(b1-6)[Gal(b1-4)GlcNAc(b1-3)]GalNAc
How it was run: as §1

Gal(b1-4)GlcNAc6P = molecular target: Gal(b1-4)GlcNAc6P
How it was run: as §1

Gal(b1-6)Gal = molecular target: Gal(b1-6)Gal
How it was run: as §1

Gal3S(b1-3)GalNAc = molecular target: Gal3S(b1-3)GalNAc
How it was run: as §1

Gal3S(b1-3)GlcNAc = molecular target: Gal3S(b1-3)GlcNAc
How it was run: as §1

B1: CvGal2 (Crassostrea virginica) (protein)
chain: MGSSHHHHHHSSGLVPRGSHMRIREAGKRKDTTKVYQIPDGLFPGQQVMLRGRVPWGSKSFSINFSATPRMGEGDILFHLNPRPSEGVCIRNALLNGSWGAEEKWQPYFPFDDGRSFSVKIEVTNDAFRTFVNGRPFVDFLHRTDFRAGKYLTLREGAEYYDVIFQSKPNIPLTTAIHNGMRIGKTIRIRGMCTAQDGFAINFNDNRNNIYFHFNARPAQRTVVRNSYFGSWGNEETAISKEFPFYPFLYFYASFVCMEDKFAVYVNDEHFIDFAHRGNPNNISVLQIKGSVNVLDTECLEPMGEDAMTEVDSGLENGDLFVLNGLMTERGKTFAVNFLNGFTENDDIALHFNPRKSTGEVVLNSRYGGAWQSEEKVALPGVFWSNRPLQVKVETKRNKFKIYVNGVDLAKYKIRGNVEDVHAVQVKGDVFLLETLLLKRLMKPVWERLTGGIRPGTWVTLQGTPKKNWQQFVVNFALDDTLDGDIAFHFNVRRGARQVVRNHRQSGAWGREETVTPFFAFDSEATFEIVFFVKEEKFLIYFNGKLFFEFVHRVPVERITHIYMDGDCNFYEPEVVI
- glycan array binding signal (z-score) [1]: -0.175
- glycan array binding signal (z-score) [2]: -0.194
- glycan array binding signal (z-score) [3]: 0.507
- glycan array binding signal (z-score) [4]: -0.326
- glycan array binding signal (z-score) [5]: -0.221
- glycan array binding signal (z-score) [6]: -0.174
- glycan array binding signal (z-score) [7]: 0.549
- glycan array binding signal (z-score) [8]: 0.117
- glycan array binding signal (z-score) [9]: -0.126
- glycan array binding signal (z-score) [10]: 0.497
- glycan array binding signal (z-score) [11]: -0.037
- glycan array binding signal (z-score) [12]: 0.047
- glycan array binding signal (z-score) [13]: 1.02
- glycan array binding signal (z-score) [14]: 0.139
- glycan array binding signal (z-score) [15]: -0.337
- glycan array binding signal (z-score) [16]: -0.293
- glycan array binding signal (z-score) [17]: -0.289
- glycan array binding signal (z-score) [18]: -0.323
- glycan array binding signal (z-score) [19]: -0.334
- glycan array binding signal (z-score) [20]: -0.335
- glycan array binding signal (z-score) [21]: -0.246
- glycan array binding signal (z-score) [22]: -0.333
- glycan array binding signal (z-score) [23]: -0.324
- glycan array binding signal (z-score) [24]: -0.324
- glycan array binding signal (z-score) [25]: -0.17
- glycan array binding signal (z-score) [26]: -0.314
- glycan array binding signal (z-score) (Gal(b1-4)GlcNAc6P): -0.336
- glycan array binding signal (z-score) (Gal(b1-6)Gal): -0.331
- glycan array binding signal (z-score) (Gal3S(b1-3)GalNAc): -0.02
- glycan array binding signal (z-score) (Gal3S(b1-3)GlcNAc): 0.597
